Test results as given in the supplement of paper PMC10338343.
The list shows a part of the results, in another mix than the full data.
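Further: 1 nM active piRISC with 0.1 nM target library at 33 °C single turnover.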

What follows are sequences tested on MIWI (PIWIL1) piRISC loaded with L1MC piRNA (30 nt) (assay: pre-steady-state target cleavage rate (min^-1); MIWI and MILI are mouse PIWI proteins and EfPiwi is from a freshwater sponge; tags in brackets are library labels; higher = faster piRNA-guided slicing of the target). Details: guide: L1MC piRNA 5'p-UAACUAAAUACUAUGCAAGCUGUAGGUCCU; auxiliary factor: none (no GTSF1).
Outline: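 In this Cleave-'n-Seq assay, uncleaved targets were sequenced and normalised to depth and to weakly complementary targets. They came from a transcribed, DNA-blocked target RNA library […] mixed with 1 nM active affinity-purified piRISC carrying one synthetic guide, with or without 500 nM GTSF1 partner protein, in HEPES–potassium acetate buffer at 33 °C for 0–8 or 0–960 min. After three trials were pooled and k3 was capped at 0.0001 min^-1, the pre-steady-state cleavage rate was obtained from a burst-and-steady-state fit.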
For UCCUGGAUGUCGAACGUAUCUAUUUGGUUA, the “pre-steady-state target cleavage rate” value was < 0.0001. In the case of UCCUGGAUGUCGAACGAUAGUAUUUACAAA, the “pre-steady-state target cleavage rate” value is reported as < 0.0001. For UCCUGGAUGUCGAACCAUAGUAUUCAGUUA, the “pre-steady-state target cleavage rate” value was < 0.0001.
